From patent US20090247734A1 (priority 2005, published 2009)

What was measured:
[1] = biological target: full length YU2 gp120 (HIV-1 strain YU2) (UniProt P35961); assay: ITC, gp120 equilibrated with D1D2
YU2 gp120 = conditions: peptide at 1 mM

Substance | fold enhancement of binding affinity in the presence of D1D2 [1] [fold] | inhibitory effect on gp120-CD4 binding (YU2 gp120)
17b (human monoclonal antibody of gp120) | 4 | 
PSCDLQ [Compound G1C] |  | little appreciable interaction with gp120
